Assay results as given in paper doi:10.1101/2024.09.08.611915 (bioRxiv, 2024).

Target: the molecule itself
Test: mass photometry

Row | Protein | stoichiometry N
1 | VCP Y755H (enzyme) not shown | 6
2 | VCP K754N (enzyme) not shown | 6
